{"source": "PubChem BioAssay AID743279", "about": "(National Center for Advancing Translational Sciences (NCATS), 2014)", "note": "Among all 360,000 compounds or so, about 17,000 (4.7%) were called active. Inconclusive means that the source gave no clear call. Such entries were picked first, then a sample of the others. Cut-off read from the data, not from the text of the source: active = activity change below about -50%; inconclusive = mostly about -30% to -49%; inactive = weaker than that. % is set by controls: 0 for no effect and ±100 for the full control effect.", "data": [{"assay": "qHTS for Inhibitors of Inflammasome Signaling: IL-1-beta AlphaLISA Primary Screen", "details": "THP-1 LPS/ATP IL-1B secretion, 16 h; at 57.5 µM, active compounds read low", "in_short": "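Secreted IL-1B measured by AlphaLISA bead assay after 16 h compound exposure of THP-1 cells; compounds (final up to 57.5 uM) added 1 h before LPS (250 ng/mL) and ATP (1.25 mM) stimulation; lower signal means less secretion.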", "values": [{"compound": "COc1ccc(C(=O)NNC(=O)c2cccc3ccccc23)cc1", "activity change": "inconclusive: -31.2%"}, {"compound": "COc1ccccc1S(=O)(=O)Cc1ccc(C(=O)NC(C)c2ccc3c(c2)OCCO3)o1", "note": "(stereo unspecified)", "activity change": "inconclusive: -45.7%"}, {"compound": "O=C(CCc1ccccc1)NNC(=S)NCc1ccc(Cl)cc1", "activity change": "inactive: -8.86%"}, {"compound": "COc1cccc(-c2csc(N3CCN(C(=S)Nc4cccc(Cl)c4)CC3)n2)c1", "activity change": "active: -80.9%"}, {"compound": "Cc1ccc2sc(-c3ccc(NC(=O)/C=C\\C(=O)O)cc3)nc2c1", "activity change": "inconclusive: -31.9%"}, {"compound": "Cc1ccc(C(C(=O)NC2CCCC2)N(C(=O)Cc2cccs2)c2ccc3c(c2)OCCO3)cc1", "note": "(stereo unspecified)", "activity change": "active: -58.4%"}, {"compound": "Clc1cc(Cl)c2nc(N3CCOCC3)sc2c1", "activity change": "inconclusive: -30.3%"}, {"compound": "CCOC(=O)CSc1nc2c(sc3ccccc32)c(=O)n1CCCN1CCOCC1", "activity change": "inconclusive: -49.6%"}, {"compound": "Cc1oc(C(C)(C)C)cc1C(=O)NC1CCN(Cc2ccccc2)CC1", "activity change": "inconclusive: -32.3%"}, {"compound": "COc1ccc(C2CC(c3cccc(Cl)c3)n3nc(N)nc3N2)cc1", "note": "(stereo unspecified)", "activity change": "inconclusive: -33.9%"}, {"compound": "Nc1nc(SCc2ccc(Cl)cc2)[nH]c(=O)c1-c1ccccc1", "activity change": "inconclusive: -41.1%"}, {"compound": "CCOC(=O)[C@]12CCCC=C1N(Cc1ccc(Cl)cc1Cl)C(=O)[C@H](CC(=O)NCCC(C)C)C2", "activity change": "inconclusive: -33.8%"}, {"compound": "COc1cc(NC(=O)c2cccnc2)ccc1NC(=O)c1ccccc1Cl", "activity change": "active: -65.7%"}, {"compound": "O=S(=O)(c1cccc(NC(=S)N2CCN(c3cccc(Cl)c3)CC2)c1)C(F)F", "activity change": "inconclusive: -35.2%"}, {"compound": "O=C1NCCN(Cc2ccc(Cl)c(F)c2)C1CC(=O)N1CCCCO1", "note": "(stereo unspecified)", "activity change": "inactive: -11.3%"}, {"compound": "N#Cc1ccccc1OCCCN1CCC(Cc2ccccc2)CC1", "activity change": "inconclusive: -49.2%"}, {"compound": "CCCCOc1ccccc1C(=O)N(Cc1ccco1)C1CCS(=O)(=O)C1", "note": "(stereo unspecified)", "activity change": "inactive: 18.1%"}, {"compound": "COC(=O)c1ccc(CN(c2ccccn2)S(=O)(=O)c2ccccc2)cc1", "activity change": "inactive: 20.1%"}, {"compound": "CCOC(=O)CCC1(C(=O)OC)C(=O)CCCCCC=C1C(=O)OC", "note": "(stereo unspecified)", "activity change": "active: -51.1%"}, {"compound": "O=C(Nc1ccc(Cl)c(C(F)(F)F)c1)c1ccco1", "activity change": "inconclusive: -30.5%"}, {"compound": "Cc1cc(NC(=S)NC(=O)c2ccccc2)ccc1-c1cc2ccccc2oc1=O", "activity change": "inactive: 8.61%"}, {"compound": "Cc1ccc(NC(=O)C(c2ccccc2)c2ccccc2)c(O)c1", "activity change": "active: -56%"}, {"compound": "COc1ccc(COC[C@H](CC(C)C)N2CCN(C(=O)c3cccc(C(F)(F)F)c3)CCC2=O)cc1", "activity change": "inconclusive: -40%"}, {"compound": "Cc1ccc(NC(=O)COc2ccccc2C(=O)NCc2ccccc2)cc1", "activity change": "inconclusive: -46.3%"}, {"compound": "O=C(/C=C/c1ccccc1)/C=C/c1ccccc1", "activity change": "active: -98.5%"}, {"compound": "NCCCn1c(C(=O)c2cc(Cl)c(N)c(Cl)c2)c2ccc(C(F)(F)F)cc2[n+]1[O-]", "activity change": "inconclusive: -35.3%"}, {"compound": "Cc1cc(C)n(-c2ccc(C(=O)Nc3ccc(S(=O)(=O)NCc4ccco4)cc3)cc2)n1", "activity change": "active: -53.8%"}, {"compound": "S=C(Nc1cccc(Cl)c1)Nc1cccc2cnccc12", "activity change": "inconclusive: -36.3%"}, {"compound": "O=C1c2ccc3c4c(ccc(c24)C(=O)N1NC(=O)C(F)(F)F)CC3", "activity change": "inconclusive: -32.7%"}, {"compound": "C=C(C)COc1ccc(-c2nc(N)ncc2-c2ccc(Cl)cc2)c(O)c1", "activity change": "inconclusive: -41.9%"}, {"compound": "CC(C)(C)NC(=O)C(c1c[nH]c2ccccc12)N(C(=O)Cn1nnc(-c2ccc(F)cc2)n1)c1cccc(O)c1", "note": "(stereo unspecified)", "activity change": "inconclusive: -38.2%"}, {"compound": "O=C(NN1C(=O)NC2(CCCCC2)C1=O)c1ccc(-c2ccccc2Cl)o1", "activity change": "inconclusive: -43.7%"}, {"compound": "CN(C)CCn1cnc2c(c1=N)C(c1ccccc1)c1ccc3ccccc3c1O2", "note": "(stereo unspecified)", "activity change": "active: -57.2%"}, {"compound": "COc1cccc(NCc2cc(=O)oc3cc(C)c(C(C)C)cc23)c1", "activity change": "inactive: -26.8%"}, {"compound": "Cc1ccc2c(c1)[C@H]1[C@H](CO2)[C@H](c2ccccc2)[C@]2(C)C(=O)Nc3ccc(Br)cc3C(=O)N12", "activity change": "inconclusive: -34.3%"}, {"compound": "CCCCNC(=O)c1cc(-c2ccc(OC)c(OC)c2)on1", "activity change": "inconclusive: -44.7%"}, {"compound": "COC(=O)/C=c1\\sc2n(c1=O)C(C)=CC(C)(C)N=2", "activity change": "inconclusive: -30.5%"}, {"compound": "CCN(C(=O)Cc1nc(N)n[nH]1)C1(C(=O)Nc2ccccc2)CCCCC1", "activity change": "inconclusive: -36%"}, {"compound": "O=C(NCc1cccc(Cl)c1)c1cccc2c(-c3cccnc3)coc12", "activity change": "inconclusive: -42.7%"}, {"compound": "CNC(C)C(=O)NC(C(=O)N1CCCC1C(=O)Nc1ccc2ncccc2c1)C(C)C", "note": "(stereo unspecified)", "activity change": "inactive: 16.7%"}, {"compound": "COc1ccc(CN2CCN(Cc3ccc(C(F)(F)F)cc3)CC2)cc1", "activity change": "inconclusive: -41.3%"}, {"compound": "Cc1cccc(NC(=O)c2ccccc2OCC(=O)c2ccccc2)c1", "activity change": "inconclusive: -37.7%"}, {"compound": "O=C(COC(=O)c1cnccn1)NCc1ccccc1Cl", "activity change": "inconclusive: -30.1%"}, {"compound": "O=C(NC1CCSc2ccccc21)c1cccc([N+](=O)[O-])c1", "note": "(stereo unspecified)", "activity change": "inconclusive: -34.8%"}, {"compound": "CCOc1ccc2ccccc2c1C1NC(=O)N(C)C(C)=C1C(=O)OCCOC", "note": "(stereo unspecified)", "activity change": "inactive: 7.43%"}, {"compound": "CCCc1[nH]nc2c1C(c1ccccc1OC)C(C#N)=C(N)O2", "note": "(stereo unspecified)", "activity change": "active: -53.1%"}, {"compound": "COc1cc(NC(=O)c2ccco2)ccc1NC(=O)c1ccccc1Cl", "activity change": "inconclusive: -39.7%"}, {"compound": "O=C(Oc1ccccc1)N1CCCCC1", "activity change": "inconclusive: -31.5%"}, {"compound": "C=CCOc1ccc(/C=C/C(=O)OCC(=O)N2CCCc3ccccc32)cc1", "activity change": "inconclusive: -41.8%"}, {"compound": "Cc1cc(C(=O)OCC(=O)N2c3ccccc3NC(=O)C2(C)C)c(C)n1-c1ccccc1", "activity change": "active: -78.6%"}, {"compound": "COc1ccc(CCC(=O)NCC23CC4CC(CC(C4)C2)C3)cc1", "activity change": "inactive: 4.75%"}, {"compound": "Cc1ccc(C(NC(=O)N2CCCC2)C(Cl)(Cl)Cl)cc1F", "note": "(stereo unspecified)", "activity change": "inconclusive: -44.6%"}, {"compound": "COC12NC(=O)N(C)C1(OC)C(=O)N(C)C(=O)N2C", "note": "(stereo unspecified)", "activity change": "inactive: 6.33%"}, {"compound": "CC1CCCN(S(=O)(=O)c2cnc[nH]2)C1", "note": "(stereo unspecified)", "activity change": "inactive: -5.75%"}, {"compound": "Cc1ccc2nc(NC(=O)CCNS(=O)(=O)c3cccs3)sc2c1", "activity change": "inconclusive: -47.5%"}, {"compound": "CCc1ccc(OCCCC(=O)Nc2ccc(S(N)(=O)=O)cc2)cc1", "activity change": "inconclusive: -36.8%"}]}]}
